# Reference: PubChem BioAssay AID686978 (National Center for Advancing Translational Sciences (NCATS), 2013)
# Screen size: about 420,000 compounds; about 64,000 (15%) were called active. Inconclusive results, whose numbers are uncertain, are shown with a selection of clear calls. Calls come from the whole dose curve; as a rule, active = well fitted inhibition curve with a large enough effect; inconclusive = small, poorly fitted or top-dose-only effect; inactive = flat fitted curve, though single readings scatter. No potency is given beside an inconclusive call; the fits are too rough.
# Assay: qHTS for Inhibitors of human tyrosyl-DNA phosphodiesterase 1 (TDP1): qHTS in cells in absence of CPT; note: nearly all actives have a fitted effect of over 55% in size
# Conditions: DT40 Tdp1-/- hTDP1 cells, no CPT, ATP luminescence, 48 h; activity change, negative = growth inhibition: at 46.2 µM (top of the series) unless noted
# Summary of the method: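 Chicken DT40 Tdp1-/- cells stably complemented with human TDP1 were seeded at 400 cells/well with DMSO in place of 20 nM camptothecin. After compound pinning, cells grew at least 48 hr at 37 °C; viability read by CellTiter-Glo luminescence.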
# % is set by controls: 0 for no effect and ±100 for the full control effect; potency is the fitted concentration of half-maximal effect; tags give direction and shape of the fitted curve.
SMILES,"activity change, negative = growth inhibition",Potency
CN(CC1CCOCC1)C(=O)CC1C(=O)NCCN1Cc1ccc(-c2ccccc2)cc1 (stereo not drawn),inconclusive: -30.1% [inhibitor],
CC1CCCC(C)N1CCCNC(=O)c1cc2c(=O)n(C)c3ccccc3c2n1C (stereo not drawn),,"inconclusive [inhibitor, single point]"
CCOC(=O)N1CCC(NC(=O)CCC(=O)N2CC(C)Oc3ccc(C)cc32)CC1 (stereo not drawn),,"inconclusive [inhibitor, single point]"
Cc1[nH]c2ccccc2c1C(=O)COC(=O)C1CCC(=O)N1 (stereo not drawn),,"inconclusive [inhibitor, full curve, poor fit]"
COc1ccccc1CNC(=O)COC(=O)/C=C/c1ccc2ccccc2n1,,"inconclusive [inhibitor, single point]"
Cc1csc(NC(=O)C2CCN(C(=O)c3ccccc3C)CC2)n1,,"inconclusive [inhibitor, full curve]"
Nc1ncc2c(n1)-c1ccccc1CC2,,"inconclusive [inhibitor, partial curve]"
CC(C)c1nn2c(=O)cc(CSc3ccccc3NC(=O)c3ccccc3F)nc2s1,,inactive
Cn1c(/C=C/c2ccccc2)nc2ccccc2c1=O,,"inconclusive [inhibitor, single point]"
Cc1noc(C)c1S(=O)(=O)N(CC(=O)N1CCc2ccccc21)c1ccc(C(C)C)cc1,,"inconclusive [inhibitor, single point]"
Cc1ccc(OCCCC(=O)NNC(=O)c2ccncc2)cc1,,inactive
Cn1cccc1C(=O)N1CCC2(CCN(C(=O)Nc3cccc(C#N)c3)CC2)CC1,,"inconclusive [inhibitor, single point]"
NC(=O)c1ccc(C(=O)N/N=C/c2cccc(Oc3ccccc3)c2)cc1,,inactive
COc1cccc(C2=N/C(=C\N(C)C)C(=O)O2)c1,,active: 23.1 µM
Cc1ccc(O)c(-c2cc(-c3ccc(F)cc3)no2)c1,,inactive
Cc1ccc(NC(=S)NCC2CCN(C(C)c3ccccc3)C2)cc1C (stereo not drawn),,active: 16.4 µM
COc1ccc(/C=C/C(=O)OCCCN(C)C)cc1,,inactive
COc1ccc(S(=O)(=O)Nc2cc3c(cc2C(C)=O)OCO3)cc1,,active: 4.61 µM
CCc1ccccc1NC(=O)CSc1nc2ccccc2nc1N1CCOCC1,,"inconclusive [inhibitor, single point]"
O=C(Oc1ccccc1)N1CCC2(CC1)CN(c1ccncc1)C2,,active: 10.3 µM
O=C(NCCN1C(=O)S/C(=C\c2ccccc2F)C1=O)C1=COCCO1,,active: 2.91 µM
Cc1ccccc1-c1nc(NC2CC2)c2ccccc2n1,,inactive
Cc1ccccc1C(=O)N1CCC(n2nccc2NC(=O)C2CC2)CC1,,inactive
CC(=O)c1ccc(N2C(=O)Nc3ccccc3S2(=O)=O)cc1,inconclusive: -31.2% [inhibitor],

SMILES,"activity change, negative = growth inhibition",Potency
CC(C)Sc1nc2sc3c(c2c(=O)n1-c1ccccc1)CCCC3,,active: 18.4 µM
CC(C)(C)CC(C)(C)N=C1Nc2cc(Cl)c(Cl)cc2NC12C[C@H]1CCC(=O)N3CC[C@@H](C2)[C@@H]13 (stereo partly drawn),,"inconclusive [inhibitor, single point]"
CC1CN(C(=S)Nc2cccc(Cl)c2Cl)CC(C)O1 (stereo not drawn),,inactive
CC1CC(C)(C)CC2(C1)NC(=O)N(CC(=O)N1CCN(S(=O)(=O)c3ccc(F)c(F)c3F)CC1)C2=O (stereo not drawn),,"inconclusive [inhibitor, single point]"
Cc1nc(-c2ccc([N+](=O)[O-])cc2)sc1C(=O)O,,inactive
Cc1ccc(NS(=O)(=O)c2cccc(C(=O)NCCCN3CCCC3=O)c2)cc1,,inactive
Oc1ccc(Br)cc1/C=N/N1CCN(Cc2ccccc2)CC1,,"inconclusive [inhibitor, single point]"
CC(=O)OC[C@@H]1CN(Cc2ccccc2)C[C@H](n2cnc3c(N4CCOCC4)ncnc32)O1,,inactive
O=C(Cn1c(SCC(=O)Nc2ccc(F)cc2)nc2ccccc21)NCc1ccc(Cl)cc1,,active: 13 µM
Cc1ccc(Cc2c(-c3ccc(Cl)cc3)nc3ccc(Br)cn23)cc1,,active: 25.9 µM
CN(Cc1ccco1)S(=O)(=O)c1nnc(NC(=O)c2ccccc2)s1,,"inconclusive [inhibitor, partial curve]"
COc1ccc(C(=O)N2CCc3cc(OC)c(OC)cc3C2c2ccc(OC)c(OC)c2)cc1OC (stereo not drawn),,"inconclusive [inhibitor, partial curve, poor fit]"
COc1ccccc1NC(=O)Cn1cnc2c(oc3nc4c(cc32)CCCC4)c1=O,,inactive
CCn1ccnc1CN(C)Cc1cn(-c2cccc(C)c2)nc1-c1cccc(F)c1,,"inconclusive [inhibitor, partial curve, poor fit]"
CCOC(=O)C1CCCN(S(=O)(=O)c2ccc3ccccc3c2)C1 (stereo not drawn),,"inconclusive [inhibitor, partial curve, poor fit]"
CCc1ccc(NS(=O)(=O)c2c(-c3ccccc3)csc2C(=O)OC)cc1,,active: 23.1 µM
Cc1cccc(OCC(=O)N2CCN(C(=O)CCC3CCCC3)CC2)c1,,"inconclusive [inhibitor, single point]"
CC1CC(C)CN(C(=S)SCc2nc(N)nc(Nc3ccccc3)n2)C1 (stereo not drawn),,"inconclusive [inhibitor, single point]"
COc1ccc2[nH]c(I)c(CCNC(C)=O)c2c1,,inactive
COc1ccccc1N(CC(=O)Nc1cc(C)cc(C)c1)S(C)(=O)=O,,"inconclusive [inhibitor, single point]"
CCC(=O)Nc1cccc(OCc2cc(=O)n3cc(C)ccc3n2)c1,,"inconclusive [inhibitor, single point]"
O=C(COC(=O)c1ccc(Cl)c([N+](=O)[O-])c1)NC1CCCC1,,inactive
COc1ccc(CCn2c(-c3cccc([N+](=O)[O-])c3)nc3nc4ccccc4nc32)cc1OC,,inactive
O=C(CSc1ccccc1)Nc1cccc(S(=O)(=O)N2CCCCC2)c1,,"inconclusive [inhibitor, single point]"
